Measured values from PubChem BioAssay AID1346428 (National Center for Advancing Translational Sciences (NCATS), 2018).
About 1,200 (2.5%) of roughly 48,000 compounds were called active. Not shown: some 2% with an inconclusive outcome.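 How the source made its calls: active means activation of at least 60% and not above a set upper limit (about 1 call in 100 departs from these limits); inconclusive means activation of 40% to 60%, or above that upper limit; inactive means activation under 40%.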 The list shows a part of the results.

What follows are molecules tested against Probable G-protein coupled receptor 32 (Homo sapiens) (UniProt O75388) (assay: qHTS for Agonists of Human Resolvin D1 Receptor DRV1). Conditions: CHO-K1 GPR32 beta-arrestin PathHunter luminescence, 90 min; at 76.9 µM; stronger effect = higher value; zero percent set by DMSO-only wells.
Chain of UniProt O75388 (O75388 whole entry, looked up): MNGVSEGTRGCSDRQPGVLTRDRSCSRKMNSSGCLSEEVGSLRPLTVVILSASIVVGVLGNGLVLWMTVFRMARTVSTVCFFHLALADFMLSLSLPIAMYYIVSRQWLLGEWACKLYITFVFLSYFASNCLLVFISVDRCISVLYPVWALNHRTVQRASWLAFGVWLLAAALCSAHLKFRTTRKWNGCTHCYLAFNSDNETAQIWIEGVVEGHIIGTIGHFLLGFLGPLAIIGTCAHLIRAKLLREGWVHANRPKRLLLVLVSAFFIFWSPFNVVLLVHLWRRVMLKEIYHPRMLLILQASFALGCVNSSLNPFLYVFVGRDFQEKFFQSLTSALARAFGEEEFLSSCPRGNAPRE
Description: Endogenous resolution of inflammation is known to be transduced through various GPCRs and their natural mediators of lipid nature. Resolvin D1 (RvD1) is one of the active players in resolution of acute inflammation through regulation of anti-inflammatory pathways; it is known to enhance phagocytosis of human macrophages, limits neutrophils infiltration, etc. […] The search for GPR32-activating small molecules with anti-inflammatory effects similar to its natural omega-3 derivative ligand in order to use them as research tools for further studies of inflammation and its resolution was the goal of this screening project. For primary screening assay, we used CHO-K1 GPR32 beta-arrestin cell line (DiscoveRx, #93-0321C2A) and the PathHunter(R) beta-Arrestin Assay (DiscoveRx) which measures recruitment of beta-arrestin to the GPR32 and generates chemiluminescent signal. These engineered cells stably transfected with GPR32 co-express GPR32-fused small 42-amino acid fragment of beta-Gal called ProLinktrade mark, and […] -tagged beta-Arrestin fusion protein. When GPR32 is activated by a ligand, it stimulates binding of beta -Arrestin to ProLink-tagged GPR32, and two parts of beta-Gal complement forming a functional enzyme. Upon substrate (PathHunter(R) Detection reagent) addition, beta-Gal hydrolyzes it and generates a chemiluminescent signal.
The cells were thawed and plated in thawing media containing F-12 HAM (Invitrogen, #11765-054), 10% FBS (Invitrogen, #10082), 1x Glutamine, and 1x Pen/Strep onto the 175-mm flask for 24 hours. Then, thawing media was replaced with Growth media which contains 800microg/mL Geneticin (Invitrogen, #10131) and 300microg/mL Hygromycin B (Invitrogen, #10687) in addition to described above. For the assay, the cells were harvested at ~80% confluent stage with Cell Dissociation buffer (Gibco, #13151), and seeded at 2,500 cells/ 3microL/well in assay media (PathHunter(R) Cell Plating Reagent, DiscoverX, #93-0563R1B) using MultiDrop Combi dispenser (Thermo Scientific, Logan, UT) onto white solid bottom tissue culture-treated 1536-well plates (Greiner # 789173-F) and allowed to attach overnight at 37 degrees C, 95% humidity, 5% CO2, . Next, 23nL/well of compound solutions in DMSO were added with a Pin Tool (Kalypsis, San Diego, CA) to the assay plates. As the basal control (EC0), 23 nL/well of DMSO was used on each plate. The cells were incubated in the presence of compounds or DMSO for 90 minutes at 37 degrees C, 5% CO2. Subsequently, 1.5microL/well of PathHunter(R) Detection Reagent prepared per the manufacturer's instructions was added to the assay plates with BioRAPTR FRDtrade mark dispenser (Beckman Coulter, San Francisco, CA) and incubated for 1 hour at ambient temperature prior to the measurement of the luminescent signal on ViewLux(R) uHTS Microplate Imager (Perkin Elmer, Waltham, MA).

activation, inactive:
COc1ccc2cc3cc(C(=O)NCc4ccc(C)cc4)oc3nc2c1 27.6%, Cc1cc(C)cc(NC(=O)CSc2nc3c(oc4ccccc43)c(=O)n2-c2ccccc2F)c1 10.2%, CCc1cccc(OCC(=O)Nc2ccc(S(=O)(=O)Nc3cc(C)nc(C)n3)cc2)c1 1.57%, COc1ccc(F)cc1S(=O)(=O)NCCc1c(C)[nH]c2c(Cl)cccc12 -22.3%, COc1ccc(OC)c(CCNC(=O)c2ccc3c(c2)N(Cc2ccc(C)cc2)CCS3)c1 -18.2%, COc1ccc(Nc2cc(C(=O)NCCc3ccc(C)cc3)c3ccccc3n2)c(OC)c1 -17.1%, Cc1ccc(-c2nnc(Nc3ccc(O)cc3)c3ccccc23)cc1S(=O)(=O)N1CCN(C)CC1 30.6%, S=C(S)OC1CC2CC1C1CCCC21 (configuration not stated) -22.4%, CCCCOc1ccc(C(=O)Nc2nnc3n2CCS3)cc1 -7.94%, CCOCCCNC(=O)C1CCN(c2nn3cc(-c4ccc(F)cc4)nc3s2)CC1 -1.68%, CCOC(=O)N1CCC(NC(=O)c2c(C)nn(-c3ccc(C)cc3)c2-n2cccc2)CC1 0.743%, CCCn1c2ccccc2c2cnn(CC(=O)NCCc3ccc(OCC)cc3)c(=O)c21 -8.29%, CCC(C(=O)OCCOCCN(CC)CC)c1ccccc1 (configuration not stated) 2.16%, CCOc1ccc(-c2nn(CC(=O)NC3CCCCC3)c3c2cnc2ccc(C)cc23)cc1 -1.87%, CCOc1ccc(NC(=O)CCNS(=O)(=O)c2ccc3c(c2)oc(=O)n3C)cc1 8.92%, Cc1ccc(C(=O)NCCc2ccc(Cl)cc2)cc1-n1c(C)nc2cccnc21 -4.84%, COc1cc(-c2noc(-c3ccc(NCc4ccccc4)c([N+](=O)[O-])c3)n2)cc(OC)c1OC 9.96%, Cc1ccc(C)c(Cn2c3ccccc3c3cnn(CC(=O)NCCC4=CCCCC4)c(=O)c32)c1 -0.988%, COc1ccc(Cl)cc1NC(=O)c1sc(-n2nc(C)c(Cc3ccccc3)c2C)nc1C 3.29%, COc1ccc(NC(=O)Cn2nnc3sc4c(c3c2=O)CCC(C)C4)c(OC)c1 (configuration not stated) -5.72%, COc1ccccc1CNC(=O)c1ccc2c(c1)N(Cc1cccc(C)c1)C(=O)c1ccccc1S2(=O)=O -2.55%, CCn1c(=O)c2cc(C(=O)N(CCN(C)C)Cc3ccccc3)sc2c2ccccc21 10.9%, COc1ccc(C2CC(=O)N(Cc3ccccc3C)c3c2c(C)nn3-c2nc(C)cc(C)n2)c(OC)c1 (configuration not stated) -9.26%, CC(C)(C)c1ccc(-c2nc(SCCOc3ccc(Cl)cc3)n3[nH]c(=O)cc3n2)cc1 33.6%, Cc1ccccc1-n1c(SCC(=O)Nc2ccc(Cl)cc2Cl)nc(O)cc1=O -5.25%, COc1ccc(-c2nc3c4ccccc4n(CC(=O)Nc4ccc(C(C)C)cc4)c(=O)n3n2)cc1 -8.25%, COc1ccc(NC(=O)CSC2=Nc3ccccc3C3=NC(CC(=O)NCc4ccccc4OC)C(=O)N23)cc1Cl (configuration not stated) -21.3%, Cc1ccc(S(=O)(=O)N2CCc3cc(C(=O)N(C)Cc4ccccc4)ccc32)cc1 -14.5%, CC(=O)N1CCc2c(sc3c2c(=O)n(-c2ccc(F)cc2)c(=O)n3Cc2cc(C)ccc2C)C1 -6.08%, CCc1sc(Nc2cccc(C)c2)nc1-c1cc2cccc(OC)c2oc1=O -33.1%, OCCOCCN1CCN(C2=Nc3ccccc3Sc3ccccc32)CC1 -6.83%, Cc1cccc(N(C)S(=O)(=O)c2ccc(-c3cc(C)no3)s2)c1 -22.4%, COc1ccc(S(=O)(=O)c2c(O)c(C)cc(NS(=O)(=O)c3ccc(Cl)cc3)c2C(C)C)cc1 10.9%, COc1ccc(-c2noc(-c3ccc(N4CCN(C)CC4)c([N+](=O)[O-])c3)n2)cc1 5.98%, COc1cccc(-n2c(=O)c3c(C)c(C(=O)N(C)C)sc3n(Cc3cccc(C)c3)c2=O)c1 -28%, COc1cc(C(=O)N2CCN(CCc3ccncc3)CC2)cc(OC)c1OC -9.66%, COc1ccc(C(CNC(=O)COc2cc(C)cc(C)c2)N2CCCCC2)cc1 (configuration not stated) -18.5%, COc1ccccc1-n1nc(-c2ccccc2)c2cnc3c(F)cc(F)cc3c21 17.1%, COc1ccc(-c2nc(C)c(CCNC(=O)C(=O)Nc3ccccc3F)s2)cc1 1.35%, Cc1ccc(NC(=O)Cn2c(=O)n(CC3CCC(C(=O)NC(C)C)CC3)c(=O)c3sccc32)cc1 (configuration not stated) -11.2%, COc1ccc(CCN2CCC(CNC(=O)c3cnn(-c4ccc(C)cc4)c3C3CCN(C(=O)OC(C)(C)C)CC3)CC2)cc1 -17.3%, CCc1cc(S(=O)(=O)O)c2cc(C(C)C)cccc1-2 -61.7%, Cc1ccc(CN2CCC(CNC(=O)c3cnn(-c4ccccc4)c3C3CCN(C(=O)OC(C)(C)C)CC3)CC2)cc1 -6.1%, COCCn1c(=O)[nH]c2cc(C(=O)N3CCN(c4ccc(Cl)cc4)CC3)ccc2c1=O 17.5%, Cc1ccc2c(c1)C(=O)C(=O)N2Cc1ccc(OCCC(C)C)cc1 -35.8%, COc1ccc(NC(=O)c2oc3ccc(S(=O)(=O)N4CCCCC4)cc3c2C)cc1Cl 3.28%, COc1ccc(NC(=O)c2cc(C(C)=O)n3ccccc23)cc1 -10.6%, Cc1ccc2nc(NC(=O)c3nc(SCc4ccccc4F)ncc3Cl)sc2c1 -6.04%, CSc1ncc(Cl)c(C(=O)Nc2cc(C(F)(F)F)ccc2Cl)n1 -8%, COc1cc2c(=O)n(Cc3ccco3)c(=O)n(CC(=O)Nc3ccc(F)cc3)c2cc1OC -9.91%, CCOc1cc2[nH]c(=O)n(Cc3ccc(C(=O)N4CCN(c5ccccc5)CC4)cc3)c(=O)c2cc1OCC -12.7%, O=C(CSc1nc(=O)n(Cc2cccnc2)c2c1CCC2)Nc1cccc(Cl)c1 -1.38%
